Hit rate of the full screen: of about 310,000 compounds, about 2,200 (0.71%) showed an effect of 50% or more. The effect is printed as a negative number. The list shows a part of the results.

human ether-à-go-go-related gene (hERG) potassium channel, sequence (Q12809 whole entry, looked up): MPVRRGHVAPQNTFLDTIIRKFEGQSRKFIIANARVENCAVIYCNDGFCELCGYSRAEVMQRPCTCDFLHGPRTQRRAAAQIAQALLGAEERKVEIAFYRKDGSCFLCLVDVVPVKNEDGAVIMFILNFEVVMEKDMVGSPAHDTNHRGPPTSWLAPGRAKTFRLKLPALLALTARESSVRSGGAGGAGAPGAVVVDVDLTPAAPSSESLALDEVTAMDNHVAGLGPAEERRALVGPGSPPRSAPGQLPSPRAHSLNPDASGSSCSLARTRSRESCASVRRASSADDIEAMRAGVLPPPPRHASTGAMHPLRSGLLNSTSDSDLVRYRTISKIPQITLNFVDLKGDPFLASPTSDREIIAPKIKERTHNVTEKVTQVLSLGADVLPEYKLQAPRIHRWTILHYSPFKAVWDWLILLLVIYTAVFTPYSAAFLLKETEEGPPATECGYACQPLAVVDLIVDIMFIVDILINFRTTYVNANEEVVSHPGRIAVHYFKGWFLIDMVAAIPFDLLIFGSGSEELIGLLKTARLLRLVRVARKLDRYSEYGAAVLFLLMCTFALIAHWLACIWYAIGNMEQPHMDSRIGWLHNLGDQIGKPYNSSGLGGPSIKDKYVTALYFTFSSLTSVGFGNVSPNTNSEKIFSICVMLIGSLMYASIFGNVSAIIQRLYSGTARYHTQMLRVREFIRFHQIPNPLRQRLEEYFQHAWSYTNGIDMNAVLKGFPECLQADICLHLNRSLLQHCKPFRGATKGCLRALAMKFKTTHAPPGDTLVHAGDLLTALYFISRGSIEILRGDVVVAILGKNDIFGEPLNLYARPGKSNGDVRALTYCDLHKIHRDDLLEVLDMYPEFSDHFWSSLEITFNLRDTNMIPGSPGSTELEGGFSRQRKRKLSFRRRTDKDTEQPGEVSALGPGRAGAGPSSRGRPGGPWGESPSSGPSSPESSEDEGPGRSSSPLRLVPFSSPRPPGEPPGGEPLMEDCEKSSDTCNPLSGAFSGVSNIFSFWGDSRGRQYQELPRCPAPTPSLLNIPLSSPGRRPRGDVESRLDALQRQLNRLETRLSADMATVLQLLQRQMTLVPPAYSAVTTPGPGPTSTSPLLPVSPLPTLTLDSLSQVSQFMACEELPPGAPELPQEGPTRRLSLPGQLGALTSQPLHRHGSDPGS

This experiment has as its target human ether-à-go-go-related gene (hERG) potassium channel (human, UniProt Q12809). The experiment is described as follows: primary screen, population patch clamp on CHO cells stably expressing hERG.
Take `O=C(NCc1ccc(F)cc1)N1CCN(S(=O)(=O)c2ccccc2F)CC1`: the “hERG current change (%, negative = inhibition) at 1uM” value amounted to 13.7%.
To `Cc1cccc(N2CCN(C(=O)c3cc(=O)[nH]c4ccccc34)CC2)c1C` belongs 3.8%; to `O=C(NC1CCN(Cc2ccccc2)CC1)c1ccccc1`, 2.84%; to `COC(=O)/C(=C/c1ccccc1)NC(=O)c1ccco1`, 13.9%.
As for `COc1ccc(CCc2nnc(CCC(=O)NCc3cnn(-c4ccccc4C)c3)o2)cc1`, the figure is 5.01%; as for `CCOc1ccc(-n2cnc3sc(C)c(C)c3c2=O)cc1`, 20.6%.
On to `Cc1cc(SC(C)C(=O)NCC(=O)Nc2ccc(F)c(F)c2F)nc2ccccc12` (stereo not drawn), for which the “hERG current change (%, negative = inhibition) at 1uM” value is given as 2.08%.
Turning to `Cc1c(C)c2ccc(OCC(=O)N3CCOCC3)c(C)c2oc1=O`, the “hERG current change (%, negative = inhibition) at 1uM” value was determined as 2.46%.
To `CCc1ccc(CNC(=O)C2CCC(=O)N(CCc3ccc(Cl)cc3)C2)nc1` (stereo not drawn) belongs -44.7%; to `COc1c(-c2ccc([N+](=O)[O-])cc2[N+](=O)[O-])c(=O)n(C)c(=O)n1C`, 13.6%.
Regarding `CC1CCN(C(=O)CSc2nnc(Cc3ccccc3)o2)CC1`, the “hERG current change (%, negative = inhibition) at 1uM” value amounted to 1.4%.
To `COc1cccc(C2/C(=C(/O)c3ccc(C)cc3)C(=O)C(=O)N2Cc2ccco2)c1` (stereo not drawn) belongs 1.53%; to `O=C(COc1ccccc1)N=C1SC2CS(=O)(=O)CC2N1c1ccc(F)cc1F` (stereo not drawn), 8%; to `CCOC(=O)CSc1ncc(-c2ccccc2)nn1`, 9.06%.
To `CC(=O)N1CCN(S(=O)(=O)c2c(C)n(C)c(=O)n(C)c2=O)CC1` belongs 14.1%.
As for `CC1=C(C(=O)Nc2cccnc2)C(c2ccccn2)n2nnnc2N1` (stereo not drawn), the figure is 1.76%; as for `Cc1onc(-c2ccccc2Cl)c1C(=O)NC(=S)Nc1ccccc1F`, 12%.
As to `Clc1ccc(C(c2ccccc2)N2CCN(c3ccccn3)CC2)cc1` (stereo not drawn), the “hERG current change (%, negative = inhibition) at 1uM” value amounted to 4.25%.
To `CCOc1ccc(NC(=O)c2cc3n(n2)C(C(F)(F)F)CC(c2ccco2)N3)cc1` (stereo not drawn) belongs 18.1%; to `NS(=O)(=O)c1ccc(CNC(=O)CCS(=O)(=O)Cc2ccccc2)cc1`, 10.7%; to `COc1ccccc1Nc1ncc(C(C)=O)c(C)n1`, 11.3%.
Consider `Cc1ccc(O)c(/C=N/NC(=O)c2[nH]ncc2Br)c1`, for which the “hERG current change (%, negative = inhibition) at 1uM” value is 14.6%.
As for `CCOC(=O)C(C)Sc1nnc(Cn2c(=O)sc3ccccc32)n1-c1ccccc1` (stereo not drawn), the figure is 4.98%.
For the compound `COc1ccc(C2Nc3ccccc3C(=O)N2NS(=O)(=O)c2ccc(C)cc2)cc1` (stereo not drawn), the “hERG current change (%, negative = inhibition) at 1uM” value stood at 12.5%.
On to `Br.Cn1c(=N)n(CC(=O)O)c2ccccc21`, for which the “hERG current change (%, negative = inhibition) at 1uM” value amounted to 1.92%.
To `O=C1C=CC[C@H](/C=C/C[C@@H](O)C[C@H](O)CCc2ccccc2)O1` belongs 6.81%; to `COc1ccc(CN2CCC(Cc3ccccc3)CC2)cc1OC.O=C(O)C(=O)O`, -32.9%.
As for `C/C(=N\NC(=O)c1ccccn1)c1ccc(C(=O)O)s1`, the figure is 12.1%.
To `CCCc1nc(NC2CCCCC2)c(C#N)c2c1COC(C)(C)C2` belongs 8.45%; to `COc1ccc(NC(=O)Cc2ccccc2)cc1`, 6.08%.
Regarding `COC(=O)C1=C(c2ccc(OCc3ccccc3)cc2)C[C@@H]2CC[C@H]1N2C(=O)NC1CCN(Cc2ccccc2)CC1`, the “hERG current change (%, negative = inhibition) at 1uM” value is reported as 11.8%.
As for `COc1ccc(N2C(=O)CC(N3CCN(S(=O)(=O)c4cc(C)ccc4C)CC3)C2=O)cc1` (stereo not drawn), the figure is 9.67%.
To `CCCCC(=O)Nc1ccc(NC(=O)c2ccc([N+](=O)[O-])cc2Cl)cc1OC` belongs 6.31%.
As for `COCCn1cnnc1SCC(=O)Nc1ccc(Br)cc1F`, the figure is 8.74%.
In the case of `CN(Cc1ccccc1)c1ccc(C(CC(N)=O)NC(=O)c2ccc(Br)cc2)cc1[N+](=O)[O-]` (stereo not drawn), the “hERG current change (%, negative = inhibition) at 1uM” value is 11.4%.
As for `CCOCCCN(CCC#N)S(=O)(=O)c1ccc(S(=O)(=O)N2CCCC2)cc1`, the figure is 17.3%.
As for `Nc1ccccc1C(=O)NCC1(c2ccccc2)CCCC1`, the figure is 13.5%; as for `O=C(O)c1ccc(Nc2nc3ccccc3nc2NS(=O)(=O)c2ccc(F)cc2)cc1`, 9.43%.
Take `O=C(NCC1CCCO1)C(c1ccncc1)N(Cc1cccs1)C(=O)CN1C(=O)c2ccccc2S1(=O)=O` (stereo not drawn): the “hERG current change (%, negative = inhibition) at 1uM” value is reported as 7.4%.
To `C=CCC1NS(=O)(=O)OC(CCCC)C1O` (stereo not drawn) belongs 20.3%; to `O=C(CCCc1ccccc1)Nc1ccc2c(c1)OCCO2`, 14.9%; to `CCN(CC)Cc1oc(CO)cc(=O)c1O`, 30.5%.
As for `CN(CC(=O)Nc1c(Cl)cccc1Cl)C(=O)c1ccccc1-c1nc2ccccc2s1`, the figure is 2.92%; as for `Cl.c1ccc2c(c1)CC(N1CCCCC1)c1ccccc1S2` (stereo not drawn), 16.1%; as for `O=c1cc(-c2ccccc2)nc(SCCOc2ccccc2Cl)[nH]1`, 5.2%.
As for `CCCCCc1nnc(NC(=O)CN2C(=O)C3CCCCC3C2=O)s1` (stereo not drawn), the figure is -0.34%; as for `CCN(CC)S(=O)(=O)c1cccc(-c2nnc(SC(C)C#N)n2Cc2ccccc2)c1` (stereo not drawn), 4.99%; as for `COc1ccc(CNC(=S)Nc2cc(C)ccc2C)cc1`, 8%.
Consider `Cc1cc(C(=O)CSc2nncs2)c(C)n1-c1c(C)n(C)n(-c2ccccc2)c1=O`, for which the “hERG current change (%, negative = inhibition) at 1uM” value was 13.3%.
On to `CC1CCN(Cc2ccc(-c3nnn(CC(=O)NC4CCCCC4)n3)cc2)CC1`, for which the “hERG current change (%, negative = inhibition) at 1uM” value was determined as 9.74%.
As for `CSc1nsc2nc(=O)c(/C=C3\C(C)=Nc4ccc(C)cc43)c(N)n12`, the figure is 16.7%; as for `CCCCCc1ccc(-c2ccc(/C=C/C(=O)O)cc2)nc1`, 8.27%.
As for `C=CC[N+]1(C)C2CCC1CC(O)C2.[Br-]` (stereo not drawn), the figure is 5.61%; as for `CCN(CC(=O)NCc1cccs1)C(=O)c1ccc(S(=O)(=O)Nc2ccccc2F)cc1`, -3.35%.
Take `CCOc1ccc(N(C(C)=O)C2C=CS(=O)(=O)C2)cc1` (stereo not drawn): the “hERG current change (%, negative = inhibition) at 1uM” value was found to be 1.17%.
As for `CCCCC12CN3CC(C)(CN(C1)C3c1ccc([N+](=O)[O-])o1)C2=O` (stereo not drawn), the figure is -9.83%; as for `COc1ccc(C2=NOC(Cn3nc(C(=O)NCc4ccco4)cc3-c3ccccc3)C2)cc1` (stereo not drawn), -44%.
Regarding `COc1ccc(N2CCN(S(=O)(=O)c3ccc(OC)cc3)CC2)cc1`, the “hERG current change (%, negative = inhibition) at 1uM” value is reported as 1.07%.
To `Cc1c(C(=O)N2CCN(c3ccccc3)CC2)sc2ncnc(N3CCC(C)CC3)c12` belongs -4.87%; to `COC(=O)C1=C(c2ccc(F)cc2F)C[C@@H]2CC[C@H]1N2C(=O)NCCOc1ccc(OC)cc1`, 15.9%.
To `CC(Oc1ccc2ccccc2c1)C(=O)NNC(=O)Nc1ccccc1F` (stereo not drawn) belongs 12.3%; to `CC(=O)NC(Cc1cccc(F)c1)C(=O)NC1CCN(c2ncccc2[N+](=O)[O-])CC1` (stereo not drawn), 17.9%.
To `O=C(Nc1cccnc1)c1c(O)c2c(n(Cc3ccccc3)c1=O)CCCC2` belongs 8.92%; to `O=C(Nc1ccc(F)c(S(=O)(=O)N2CCOCC2)c1)C1CCCCC1`, 10.9%; to `CCCc1ccc(Oc2cc(Cl)nc(N)n2)cc1`, 2.58%.
Turning to `CCCCCNC(=O)c1c[nH]c2ccc(S(=O)(=O)N3CCC4(CC3)OCCO4)cc2c1=O`, the “hERG current change (%, negative = inhibition) at 1uM” value came out at 10.6%.
As for `COc1ccc(NC(=O)Nc2ccc3nsnc3c2)cc1`, the figure is 4.46%; as for `COc1ccc(OC)c(C2CC(=O)c3c([nH]c(C(=O)OCC4CCCO4)c3C)C2)c1` (stereo not drawn), 2.66%.
Consider `Cc1ccc(OCCCC(=O)NNC(=O)c2ccncc2)cc1`, for which the “hERG current change (%, negative = inhibition) at 1uM” value was determined as 13.4%.
As for `CC(CN1CCCC1)OC(=O)c1ccc(Br)cc1.Cl` (stereo not drawn), the figure is 2.4%; as for `CSc1ccccc1C(=O)NCc1ccc(F)cc1`, 12.2%; as for `COc1ccccc1-n1c(-c2cc(-c3ccco3)[nH]n2)n[nH]c1=S`, 16.2%.
`CC(OC(=O)c1ccc2c(=O)n3c(nc2c1)CCCCC3)C(=O)Nc1ccc(F)cc1Cl` (stereo not drawn): the “hERG current change (%, negative = inhibition) at 1uM” value came to 14.5%.
As for `COc1ccc(OC)c(NC(=O)c2oc3c(c2C)C(O)CC(C)(C)C3)c1` (stereo not drawn), the figure is 10.9%; as for `CSc1nsc(SC)c1NC(=O)Nc1ccccc1C`, 11.2%; as for `Cc1cccc2c(=O)cc(C)n(CC(=O)N3CCOCC3)c12`, 9.29%.
As for `O=C1NC(=O)C(Cc2c[nH]c3ccccc23)N1` (stereo not drawn), the figure is 12.4%.
As for `NC(=O)CC(NC(=O)c1ccccc1)c1ccc(NCCc2ccc(Cl)cc2)c([N+](=O)[O-])c1` (stereo not drawn), the figure is 4.8%; as for `COC(=O)c1sc(S(=O)(=O)NCc2cccs2)c(C(=O)OC)c1C`, 7.05%; as for `COc1ccc(C(CNC(=O)c2cc(SC)ccc2Cl)N(C)C)cc1` (stereo not drawn), 5.64%.
Turning to `Cc1cc(Br)ccc1NC(=O)CCSc1ccccc1`, the “hERG current change (%, negative = inhibition) at 1uM” value turned out to be 16.5%.
Consider `COc1ccc(NC(=O)c2ccco2)cc1NC(=O)c1c(OC)cccc1OC`, for which the “hERG current change (%, negative = inhibition) at 1uM” value stood at 9.39%.
Consider `O=C(Cc1ccc(Cl)cc1)Nc1ccc2c(c1)C(=O)NC2=O`, for which the “hERG current change (%, negative = inhibition) at 1uM” value is listed as 5.63%.
As for `O=C(c1ccccc1)N(Cc1ccc(F)cc1)Cc1nc2ccccc2c(=O)[nH]1`, the figure is -1.53%; as for `O=C(Cc1cccc2ccccc12)NNC(=O)Nc1cccc(Cl)c1`, 11.4%; as for `Cc1ccc(S(=O)(=O)C(CNC(=O)C(C)C)c2cccs2)cc1` (stereo not drawn), 16.6%.
To `O=C(COC(=O)c1cc[n+]([O-])cc1)NCc1ccccc1Cl` belongs -6.16%.

(Values after article PMC4336329 (PLoS ONE, 2015).)
